Results taken from EP4818203A1.

Columns and labels:
[1] = target: Lactobacillus plantarum LDH1 protein (Lactobacillus plantarum) (UniProt P56512); assay: sandwich ELISA, LDH1 10 ng/ml, paired with 1G9 at 1 ug/ml
[2] = target: Lactobacillus plantarum LDH1 protein (Lactobacillus plantarum) (UniProt P56512); assay: sandwich ELISA, LDH1 10 ng/ml, paired with 2H1 at 1 ug/ml
[3] = target: Lactobacillus plantarum LDH1 protein (Lactobacillus plantarum) (UniProt P56512); assay: sandwich ELISA, LDH1 10 ng/ml, paired with 3E3 at 1 ug/ml
[4] = target: Lactobacillus plantarum LDH1 protein (Lactobacillus plantarum) (UniProt P56512); assay: sandwich ELISA, LDH1 10 ng/ml, paired with 4F7 at 1 ug/ml
[5] = target: Lactobacillus plantarum LDH1 protein (Lactobacillus plantarum) (UniProt P56512); assay: sandwich ELISA, LDH1 10 ng/ml, paired with 3B10 at 1 ug/ml
[6] = target: Lactobacillus plantarum LDH1 protein (Lactobacillus plantarum) (UniProt P56512); assay: sandwich ELISA, LDH1 10 ng/ml, paired with 3D10 at 1 ug/ml
[7] = target: Lactobacillus plantarum LDH1 protein (Lactobacillus plantarum) (UniProt P56512); assay: sandwich ELISA, LDH1 100 ng/ml, paired with 1G9 at 1 ug/ml
[8] = target: Lactobacillus plantarum LDH1 protein (Lactobacillus plantarum) (UniProt P56512); assay: sandwich ELISA, LDH1 100 ng/ml, paired with 2H1 at 1 ug/ml
[9] = target: Lactobacillus plantarum LDH1 protein (Lactobacillus plantarum) (UniProt P56512); assay: sandwich ELISA, LDH1 100 ng/ml, paired with 3E3 at 1 ug/ml
[10] = target: Lactobacillus plantarum LDH1 protein (Lactobacillus plantarum) (UniProt P56512); assay: sandwich ELISA, LDH1 100 ng/ml, paired with 4F7 at 1 ug/ml
[11] = target: Lactobacillus plantarum LDH1 protein (Lactobacillus plantarum) (UniProt P56512); assay: sandwich ELISA, LDH1 100 ng/ml, paired with 3B10 at 1 ug/ml
[12] = target: Lactobacillus plantarum LDH1 protein (Lactobacillus plantarum) (UniProt P56512); assay: sandwich ELISA, LDH1 100 ng/ml, paired with 3D10 at 1 ug/ml
[13] = target: Lactobacillus plantarum LDH1 protein (Lactobacillus plantarum) (UniProt P56512); assay: sandwich ELISA, LDH1 1000 ng/ml, paired with 1G9 at 1 ug/ml
[14] = target: Lactobacillus plantarum LDH1 protein (Lactobacillus plantarum) (UniProt P56512); assay: sandwich ELISA, LDH1 1000 ng/ml, paired with 2H1 at 1 ug/ml
[15] = target: Lactobacillus plantarum LDH1 protein (Lactobacillus plantarum) (UniProt P56512); assay: sandwich ELISA, LDH1 1000 ng/ml, paired with 3E3 at 1 ug/ml
[16] = target: Lactobacillus plantarum LDH1 protein (Lactobacillus plantarum) (UniProt P56512); assay: sandwich ELISA, LDH1 1000 ng/ml, paired with 4F7 at 1 ug/ml
[17] = target: Lactobacillus plantarum LDH1 protein (Lactobacillus plantarum) (UniProt P56512); assay: sandwich ELISA, LDH1 1000 ng/ml, paired with 3B10 at 1 ug/ml
[18] = target: Lactobacillus plantarum LDH1 protein (Lactobacillus plantarum) (UniProt P56512); assay: sandwich ELISA, LDH1 1000 ng/ml, paired with 3D10 at 1 ug/ml
[19] = target: Lactobacillus plantarum LDH1 protein (Lactobacillus plantarum) (UniProt P56512); assay: lateral flow rapid kit, 3D5 on the test line with 2H1-gold conjugate

Chain of UniProt P56512 (P56512 whole entry): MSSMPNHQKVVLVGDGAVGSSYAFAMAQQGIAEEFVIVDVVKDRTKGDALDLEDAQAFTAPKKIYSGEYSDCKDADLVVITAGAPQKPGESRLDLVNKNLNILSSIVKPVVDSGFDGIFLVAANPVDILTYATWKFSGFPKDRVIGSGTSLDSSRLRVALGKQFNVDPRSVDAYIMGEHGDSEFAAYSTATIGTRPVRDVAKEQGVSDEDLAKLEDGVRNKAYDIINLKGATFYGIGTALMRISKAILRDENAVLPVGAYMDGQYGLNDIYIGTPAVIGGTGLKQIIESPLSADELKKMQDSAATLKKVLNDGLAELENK

B1: monoclonal antibody 3D5 (antibody, V domains shown)
VH: EVQLQQSGPGILQSSQTLSLTCSFSGFSLSTSGMGVGWIRQPSGKGLEWLAHIWWDDVKRYNPALKSRLTISKDTSSSQVFLKIASVDTADTATYYCVRSLLAHYDGYYVIYAMDYWGQGTSVTVSS
VL: DIVLTQTPSSLAVSVGEKVTMS[about 80 residues left out]FGGGTKLEIKR
OD [1]: 0.062 OD
OD [2]: 0.062 OD
OD [3]: 0.085 OD
OD [4]: 0.113 OD
OD [5]: 0.085 OD
OD [6]: 0.053 OD
OD [7]: 0.068 OD
OD [8]: 0.093 OD
OD [9]: 0.103 OD
OD [10]: 0.196 OD
OD [11]: 0.21 OD
OD [12]: 0.064 OD
OD [13]: 0.109 OD
OD [14]: 0.317 OD
OD [15]: 0.239 OD
OD [16]: 0.998 OD
OD [17]: 1.28 OD
OD [18]: 0.16 OD
detection level of LDH1 on rapid kit [19]: 0.032 µg/mL
